Out of some 310,000 compounds screened, about 14,000 (4.5%) showed an effect of 50% or more. Effects have a minus sign here. The list shows a part of the results.
These compounds were tested against human ether-à-go-go-related gene (hERG) potassium channel (human, UniProt Q12809) (assay: primary screen, population patch clamp on CHO cells stably expressing hERG).
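Note: peak tail current of the secondary pulse compared with the same well before compound.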

Sequence of human ether-à-go-go-related gene (hERG) potassium channel (Q12809 whole entry, looked up): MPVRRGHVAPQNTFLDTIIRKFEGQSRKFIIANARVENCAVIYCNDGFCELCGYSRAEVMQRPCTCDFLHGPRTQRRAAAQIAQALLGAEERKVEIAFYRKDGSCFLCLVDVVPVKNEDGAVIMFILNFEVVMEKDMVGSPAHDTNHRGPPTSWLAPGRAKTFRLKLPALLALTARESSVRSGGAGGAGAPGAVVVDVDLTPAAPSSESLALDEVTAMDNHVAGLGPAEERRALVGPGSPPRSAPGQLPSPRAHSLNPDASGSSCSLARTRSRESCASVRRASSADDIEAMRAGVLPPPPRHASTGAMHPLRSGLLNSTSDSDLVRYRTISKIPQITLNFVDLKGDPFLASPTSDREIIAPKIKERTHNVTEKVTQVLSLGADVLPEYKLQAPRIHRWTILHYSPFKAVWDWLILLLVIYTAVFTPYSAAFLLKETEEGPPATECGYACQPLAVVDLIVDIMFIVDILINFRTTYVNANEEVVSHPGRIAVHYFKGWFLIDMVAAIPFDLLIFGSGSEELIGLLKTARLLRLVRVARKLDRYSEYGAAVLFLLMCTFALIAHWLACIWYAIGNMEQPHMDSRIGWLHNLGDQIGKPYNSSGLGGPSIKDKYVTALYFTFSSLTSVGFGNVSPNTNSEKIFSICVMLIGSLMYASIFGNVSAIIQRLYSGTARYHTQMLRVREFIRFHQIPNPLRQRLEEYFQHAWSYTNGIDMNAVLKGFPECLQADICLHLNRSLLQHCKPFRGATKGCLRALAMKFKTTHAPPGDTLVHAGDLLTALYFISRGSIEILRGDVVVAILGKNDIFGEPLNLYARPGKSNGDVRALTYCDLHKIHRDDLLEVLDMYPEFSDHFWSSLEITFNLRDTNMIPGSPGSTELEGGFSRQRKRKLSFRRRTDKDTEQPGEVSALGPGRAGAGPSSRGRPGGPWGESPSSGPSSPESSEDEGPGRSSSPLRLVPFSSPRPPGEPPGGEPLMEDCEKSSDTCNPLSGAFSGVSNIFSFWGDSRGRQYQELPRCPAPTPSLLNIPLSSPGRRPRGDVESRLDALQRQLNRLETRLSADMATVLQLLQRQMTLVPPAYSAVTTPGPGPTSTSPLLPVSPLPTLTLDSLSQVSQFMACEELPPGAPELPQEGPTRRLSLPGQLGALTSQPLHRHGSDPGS

Row | SMILES | hERG current change (%, negative = inhibition) at 10uM
1 | CC(Oc1ccc(Cl)cc1Cl)c1nc(-c2ccccn2)no1 (stereo not drawn) | -34.4%
2 | N#C/C(=C(/O)CN1CCN(c2ccccc2F)CC1)c1nc(-c2ccc(Cl)cc2)cs1 | -2.48%
3 | Cc1ccc(S(=O)(=O)N2CC3CCCC2C3)cc1 (stereo not drawn) | 0.346%
4 | O=C(O)CN(c1ccccc1F)S(=O)(=O)c1ccccc1 | 29.9%
5 | Cc1ccc(Nc2nc(-c3c(C)nc4ncccn34)cs2)cc1 | -10.4%
6 | Cc1cc(C)c2nc(N3CCCN(C(=O)c4ccco4)CC3)c(C#N)cc2c1 | -38.8%
7 | O=S(=O)(c1cccc(-c2csc(-c3cccnc3)n2)c1)N1CCOCC1 | -20.2%
8 | CNS(=O)(=O)c1cccc(C(=O)OCC(=O)N2CCc3ccccc3C2)c1 | -6.33%
9 | Cc1csc(NC(=O)CSc2ccc3nnc(-c4ccncc4)n3n2)n1 | 5.89%
10 | COc1cc2c(-c3ccc4cc[nH]c4c3)c(-c3ccc(C#N)cc3)oc(=O)c2cc1OC | 12.4%
11 | CC1CCN(C(=O)CN(c2cccc(F)c2)S(C)(=O)=O)CC1 | -8.32%
12 | C=C(C)CN(CC)C(=O)COc1ccc(S(=O)(=O)Nc2ccc(OC)cc2)cc1 | -7.21%
13 | COCCNC(=O)CN(C(=O)CCC(=O)Nc1ccccn1)c1ccc(F)c(Cl)c1 | 4.59%
14 | CCCn1c(Cc2ccccc2)nnc1SC(C)C(=O)NC1CC1 (stereo not drawn) | 2.02%
15 | CC(C)[C@H](NC(=O)[C@H](Cc1ccccc1)n1c(=O)[nH]c2ccccc2c1=O)C(=O)N1CCC[C@H]1C(=O)O | 10.1%
16 | O=C(COC(=O)C1CC1)NCCNC(=O)COC(=O)C1CC1 | 11.1%
17 | O=C(Nc1nnc(SCC(=O)N2CCCc3ccccc32)s1)c1cccc2ccccc12 | 6.65%
18 | COc1ccc(-c2cc3c(=O)n(CC(=O)NCc4cccnc4)ncn3n2)cc1 | -16.5%
19 | Cc1cc(C)c(/C([O-])=C(/C(=S)Nc2ccc(SC(F)F)cc2)[n+]2ccccc2)cc1C | 0.184%
20 | O=[N+]([O-])c1cc(C(F)(F)F)cc([N+](=O)[O-])c1N1CCN(S(=O)(=O)c2ccccc2)CC1 | -8.9%
21 | CCCCn1c(C)cc(C)c(S(=O)(=O)c2ccccc2C)c1=O | 6.88%

Row | SMILES | hERG current change (%, negative = inhibition) at 10uM
22 | Cc1ccc2c(c1)c1c(n2C)C(=O)CCC1 | 11.8%
23 | CN(C(=O)COc1ncnc2c1cnn2-c1ccccc1)C1CCCCC1 | 0.236%
24 | CC(C)[C@@H]1COC(c2cccc(C3=N[C@H](C(C)C)CO3)n2)=N1 | 5.3%
25 | CC(NC(=O)/C(=C\c1ccco1)NC(=O)c1ccccc1Br)C(=O)O (stereo not drawn) | 11.6%
26 | Cn1c(-c2cccc([N+](=O)[O-])c2)[n+](C)c2ccccc21.[Cl-] | -48%
27 | CCn1c2ccccc2c2cc(NC(=O)CCCN3C(=O)CCC3=O)ccc21 | -3.97%
28 | COc1cc2c(cc1OC)CN(C(=O)NS(=O)(=O)c1ccc(C)cc1)CC2 | -1.8%
29 | O=C1c2ccccc2C(O)(c2ccccc2)N1CCc1ccccc1 (stereo not drawn) | -19.3%
30 | O=c1c(Cl)c(NCc2ccco2)cnn1C12CC3CC(CC(C3)C1)C2 | -22.7%
31 | CCOC(=O)N1CCN(C(=O)c2ccc(Cl)nc2)CC1 | -19.9%
32 | CN(Cc1ccccc1)C(=O)CSc1nnc(-c2ccco2)n1-c1ccccc1 | -80.2%
33 | Cc1ccc(-c2nc(SCC(=O)c3c(N)n(C)c(=O)n(C)c3=O)n[nH]2)cc1 | 4.55%
34 | COc1ccc(NC(=O)CSc2n[nH]c(-c3ccccc3)n2)cc1S(N)(=O)=O | -4.78%
35 | Cc1nc(SCC(=O)NCc2ccco2)c2oc3ccccc3c2n1 | -11.8%
36 | CCc1ccccc1N(C)S(=O)(=O)c1ccc2[nH]cc(C(=O)N3CCc4ccccc43)c(=O)c2c1 | -18.2%
37 | CC1C2Cn3c(nc4ccccc43)C1N(C)O2 (stereo not drawn) | 12.9%
38 | COc1ccccc1C(=O)NC(=S)Nc1ccc(S(=O)(=O)N2CCN(C)CC2)cc1 | 3.18%
39 | Cc1sc2nnn(CC(=O)N3CCN(C(=O)c4ccco4)CC3)c(=O)c2c1C | -32.4%
40 | OC(CN(c1ccccc1)c1ccccc1)Cn1cnc2ccccc21 (stereo not drawn) | -25.9%
41 | CCN(CC)CC(=O)Nc1cccc(S(=O)(=O)N2CCCC2)c1 | 2.42%
42 | COC(=O)CN1C(=S)N(c2ccc(OC)cc2)C(=O)/C1=C/c1ccc(N2CCOCC2)cc1 | 4.72%

Reference: article PMC4336329 (PLoS ONE, 2015)
